# Laboratory results: PubChem BioAssay AID2676 (National Center for Advancing Translational Sciences (NCATS), 2010)
# The whole screen tested about 370,000 compounds, of which about 1,100 (0.3%) were called active. The inconclusive results got no clear call from the source; some entries with a clear call stand among them for comparison. Calls come from the whole dose curve; as a rule, active = well fitted activation curve with a large enough effect; inconclusive = small, poorly fitted or top-dose-only effect; inactive = flat fitted curve, though single readings scatter. A potency beside an inconclusive call is a rough fit, not a confirmed value.
# Target: Relaxin receptor 1 (Homo sapiens) (UniProt Q9HBX9)
# UniProt Q9HBX9, sequence (Q9HBX9 whole entry, looked up): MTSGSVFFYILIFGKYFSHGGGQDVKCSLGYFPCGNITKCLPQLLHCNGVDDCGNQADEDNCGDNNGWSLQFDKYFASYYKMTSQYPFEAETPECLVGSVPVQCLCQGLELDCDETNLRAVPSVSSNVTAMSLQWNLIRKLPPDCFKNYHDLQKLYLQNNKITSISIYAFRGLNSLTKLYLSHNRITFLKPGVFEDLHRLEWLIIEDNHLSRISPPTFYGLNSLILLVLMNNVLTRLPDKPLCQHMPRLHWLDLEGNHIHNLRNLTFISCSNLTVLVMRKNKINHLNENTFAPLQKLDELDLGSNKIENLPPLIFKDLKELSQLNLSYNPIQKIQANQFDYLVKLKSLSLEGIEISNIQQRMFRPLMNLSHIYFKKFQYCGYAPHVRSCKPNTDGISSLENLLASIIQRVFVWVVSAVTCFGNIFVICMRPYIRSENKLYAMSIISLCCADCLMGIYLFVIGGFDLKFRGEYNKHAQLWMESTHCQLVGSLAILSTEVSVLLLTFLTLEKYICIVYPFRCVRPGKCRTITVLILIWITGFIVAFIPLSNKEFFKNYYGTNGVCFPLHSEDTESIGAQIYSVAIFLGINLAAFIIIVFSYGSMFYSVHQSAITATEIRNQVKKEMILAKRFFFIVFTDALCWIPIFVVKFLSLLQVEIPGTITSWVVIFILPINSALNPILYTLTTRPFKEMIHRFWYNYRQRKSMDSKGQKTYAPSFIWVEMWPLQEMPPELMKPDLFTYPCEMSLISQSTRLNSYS
# Experiment: qHTS Assay for Agonists of the Relaxin Receptor RXFP1; note: nearly all actives have a fitted effect of over 60% in size
# Conditions: HEK293T-RXFP1 cAMP TR-FRET, 30 min; series mostly up to 57.5 µM; activation: at the top concentration
# Summary of the method: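 HEK293T cells stably expressing RXFP1 were pretreated with the PDE4 inhibitor Ro 20174, exposed to compounds for 30 min at 37C, lysed, and cAMP was read by TR-FRET. Data normalized to buffer (basal) and 29 nM porcine relaxin (100%).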
# % is set by controls: 0 for no effect and ±100 for the full control effect; potency is the fitted concentration of half-maximal effect; tags give direction and shape of the fitted curve.
Structure (SMILES),Potency,activation
COc1ccc(CNC(=O)CCc2nnc3ccc(N4CCC5(CC4)OCCO5)nn23)cc1,"inconclusive: 28.2 µM [activator, partial curve]",–
CCN1c2ccccc2-c2nc(SCC(=O)Nc3cccc(C)c3C)ncc2S1(=O)=O,"inconclusive: 39.8 µM [activator, single point]",–
COCCCn1c(=O)c2sccc2n2c(CCCC(=O)NCC3CCCO3)nnc12 (stereo not given),"inconclusive: 28.2 µM [activator, partial curve]",–
CC(=O)Nc1ccc(NC(=O)c2oc3c(c2C)-c2nn(Cc4ccccc4Cl)cc2CC3)cc1,"inconclusive: 20 µM [activator, partial curve]",–
CCc1cccc(NC(=O)CCn2c(=O)c3cccn3c3cccnc32)c1,"inconclusive: 35.5 µM [activator, single point]",–
O=C(CCn1c(=O)c2sccc2n(Cc2ccccc2F)c1=O)NCc1ccc2c(c1)OCO2,"inconclusive: 35.5 µM [activator, single point]",–
Cc1cc(NC(=O)CCc2nc3cccnc3n2-c2ccccc2)ccc1Br,–,inactive: -2.17%
Cn1c(=O)c2c(nc(Sc3ncnn3CC(=O)NC(C)(C)C)n2C)n(C)c1=O,"inconclusive: 28.2 µM [activator, partial curve]",–
COc1ccccc1C(=O)Nc1ccccc1OCc1cc(=O)n2c(C)csc2n1,"inconclusive: 39.8 µM [activator, single point]",–
CCOC(=O)c1sc2cccc(F)c2c1S(=O)(=O)NCc1ccccc1Cl,"inconclusive: 31.6 µM [activator, single point]",–
COc1cc(SC)ccc1C(=O)Nc1ccc(S(=O)(=O)Nc2nccc(C)n2)cc1,"inconclusive: 14.1 µM [activator, partial curve]",–
Cc1ccc(S(=O)(=O)Oc2cccc(/C=N/Nc3ccc(C(=O)O)cc3)c2)cc1,–,inactive: -0.0468%
CCOc1ccc(C(=O)Cn2c(=O)n3nc(CCn4nc(C)cc4C)nc3c3cc(OC)c(OC)cc32)cc1,"inconclusive: 39.8 µM [activator, single point]",–
Cc1ccc(Cl)cc1NC(=O)C1CCN(c2nnc(C)c3c(C)n(-c4ccccc4)nc23)CC1,"inconclusive: 35.5 µM [activator, single point]",–
CCc1ccccc1NC(=O)CSc1nc2c(c(-c3ccco3)c1C#N)CCCC2,"inconclusive: 11.2 µM [activator, partial curve]",–
CCOC(=O)N1CCN(C(=O)c2nn(-c3ccc(C)cc3)c(=O)c3c2c2ccccc2n3C)CC1,"inconclusive: 35.5 µM [activator, single point]",–
CN(C)c1ccc(P(=O)(OCc2ccccc2)C(O)c2ccc(Cl)cc2)cc1 (stereo not given),"inconclusive: 28.2 µM [activator, single point]",–
CCCS(=O)(=O)c1nc(S(=O)(=O)c2ccc(C)cc2)c(N2CCN(C)CC2)s1,"inconclusive: 28.2 µM [activator, partial curve]",–
CCOC(=O)C1CCN(c2cc3c(cc2NC(=O)c2ccc(Cl)cc2)n(C)c(=O)n3C)CC1,–,inactive: 4.35%
COc1ccc(S(=O)(=O)NCc2ccc3c(c2)CCN3C(=O)c2ccccc2)cc1OC,–,inactive: -2.81%
COc1cccc(CNC(=O)C2CCC(CNS(=O)(=O)c3ccc4c(c3)CCCC(=O)N4)CC2)c1 (stereo not given),–,inactive: 0.285%
OCC1(CCCc2ccccc2)CCN(Cc2cc(F)ccc2F)CC1,–,inactive: -0.229%

Structure (SMILES),Potency,activation
CCS(=O)(=O)c1ncc(Cl)c(C(=O)Nc2ccc(S(=O)(=O)N(C)c3ccccc3)cc2)n1,inactive,–
Cc1cc(C)n2nc(-c3ccc(Cl)cc3)cc2n1,–,inactive: 1.62%
CCOC(=O)c1ccccc1NC(=O)CSc1nc(=O)[nH]c2c1CCCC2,"inconclusive: 39.8 µM [activator, single point]",–
CCn1ncc(Br)c1C(=O)Nc1sc2c(c1C(N)=O)CCC2,"inconclusive: 35.5 µM [activator, single point]",–
COc1ccccc1C(=O)Nc1cccc(OCc2cc(=O)n3ccccc3n2)c1,"inconclusive: 39.8 µM [activator, single point]",–
Cc1cccc(CNC(=O)c2ccc3c(c2)N(C)CCS3)c1,"inconclusive: 22.4 µM [activator, partial curve]",–
COc1cccc(C2C(C(=O)c3ccc(C)o3)=C(O)C(=O)N2c2cc(C)on2)c1 (stereo not given),"inconclusive: 28.2 µM [activator, partial curve]",–
COc1ccc(CC(=O)OCc2cc(=O)n3cc(Br)ccc3n2)cc1OC,"inconclusive: 17.8 µM [activator, partial curve]",–
COc1ccc(C(=O)COc2ccc3ccc(=O)oc3c2)c(OC)c1,"inconclusive: 31.6 µM [activator, single point]",–
Cc1ccc(C)c(N2CCN(CCN3CCCCC3)CC2)c1,–,inactive: 0.469%
Cc1cc(C)c2oc(-c3ccc(Cl)c(NC(=O)c4cccs4)c3)nc2c1,"inconclusive: 39.8 µM [activator, single point]",–
COc1ccc(-c2cc3ccc(O)c(CN4CCCC4)c3oc2=O)cc1,"inconclusive: 28.2 µM [activator, single point]",–
CC(=O)c1ccc(NC(=S)N2CCN(c3cccc(Cl)c3)CC2)cc1,"inconclusive: 35.5 µM [activator, single point]",–
Cc1cc2c(cc1NS(=O)(=O)c1cccc(C#N)c1)n(C)c(=O)c(=O)n2C,"inconclusive: 39.8 µM [activator, single point]",–
Cc1ccc(-n2nnc3c(=O)n(CC(=O)NCC4CCCO4)cnc32)cc1 (stereo not given),"inconclusive: 22.4 µM [activator, partial curve]",–
CN1C(=O)c2ccccc2Sc2ccc(NC(=O)N3CCN(c4ccccc4)CC3)cc21,–,inactive: -8.46%
CCOc1ccc(CNC(=O)c2nn(-c3ccc(OC)cc3)c(=O)c3c2c2ccccc2n3C)cc1,"inconclusive: 39.8 µM [activator, single point]",–
Cc1cc(=O)oc2cc(NC(=O)COc3cccc(C(F)(F)F)c3)ccc12,"inconclusive: 22.4 µM [activator, single point]",–
CSc1ccccc1-c1nnc(NC(=O)Cc2ccccc2)o1,"inconclusive: 28.2 µM [activator, partial curve]",–
CCOc1ccc(CN2CCN(Cc3cccn3-c3cccnc3)CC2CCO)cc1 (stereo not given),–,inactive: 0.165%
CCn1c(SCC(=O)Nc2ccccc2C(=O)OC)nc2ccsc2c1=O,"inconclusive: 39.8 µM [activator, single point]",–
CCOc1ccc(NC(=O)c2sc3nc4n(c(=O)c3c2C)CCC4)cc1,"inconclusive: 35.5 µM [activator, single point]",–

Structure (SMILES),Potency,activation
CC(=O)c1ccc(N2CCN(S(=O)(=O)c3ccc(-c4coc(C)n4)cc3)CC2)cc1,"inconclusive: 39.8 µM [activator, single point]",–
Cc1ccc(C)c(Nc2cc(C(=O)NC3CCCC3)c3ccccc3n2)c1,"inconclusive: 14.1 µM [activator, partial curve]",–
COc1ccc(NC(=O)CC2C(=O)N(c3ccc(OC)cc3)C(=O)N2CCC2=CCCCC2)cc1 (stereo not given),–,inactive: 0.605%
Cc1ccc(N=c2c([N+](=O)[O-])nn(-c3ccccc3)n2O)c(C)c1,–,inactive: -2.03%
CN(c1ccccc1)S(=O)(=O)c1cccc(NC(=O)c2cccc(C#N)c2)c1,–,inactive: -0.88%
Cc1ccc(CNC(=O)C(C)n2nc(C)n3c(cc4sccc43)c2=O)cc1 (stereo not given),"inconclusive: 20 µM [activator, partial curve]",–
COc1ccccc1C(=O)Nc1cccc(C(=O)OCc2cc(=O)n3ccsc3n2)c1,"inconclusive: 31.6 µM [activator, single point]",–
CCc1cc(=O)oc2cc(C)cc(O)c12,"inconclusive: 25.1 µM [activator, partial curve]",–
Cc1cccc(NC(=O)Cn2nc([N+](=O)[O-])c(Br)c2C)n1,–,inactive: -0.44%
COc1ccc(C(=O)Nc2nnc(CC(=O)N/N=C/c3ccc(O)cc3O)s2)cc1,–,inactive: -2.62%
CCOC(=O)CCc1c(C)nc2c(c(C)nn2-c2ccc(C)cc2)c1C,"inconclusive: 39.8 µM [activator, single point]",–
Cc1ccc(CSc2nc3cccnc3n2Cc2ccc(C(=O)NC3CCCCC3)cc2)cc1,active: 20 µM,–
Cc1cc(C)nc(Sc2ncnc3c2oc2ccccc23)n1,"inconclusive: 25.1 µM [activator, partial curve]",–
COc1ccccc1-n1c(=O)c(C#N)c(-c2ccc([N+](=O)[O-])cc2)c2cc(C(=O)c3ccccc3O)cnc21,"inconclusive: 39.8 µM [activator, single point]",–
COc1ccc(NC(=O)C2CCCN2c2nn3c(=O)cc(C)nc3s2)cc1 (stereo not given),"inconclusive: 31.6 µM [activator, single point]",–
O=C(COc1ccccc1)OCc1cc(=O)n2nc(-c3cccs3)sc2n1,"inconclusive: 39.8 µM [activator, single point]",–
N#C/C(=C\c1ccc([N+](=O)[O-])o1)c1nc2ccccc2[nH]1,"inconclusive: 25.1 µM [activator, partial curve]",–
Cc1ccc(CNc2nc3ccc(C)cc3n3nnnc23)cc1,"inconclusive: 7.08 µM [activator, single point]",–
O=C(O)c1cc(-c2ccc(Cl)s2)nc2ccccc12,"inconclusive: 25.1 µM [activator, partial curve]",–
N=c1c(C(=O)NC2CCCCC2)cc2c(=O)n3ccccc3nc2n1CC1CCCO1 (stereo not given),"inconclusive: 22.4 µM [activator, partial curve]",–
O=c1[nH]c2ccccc2n1CCCN1CCN(C(c2ccccc2)c2ccccc2)CC1,–,inactive: 4.06%
